This is an account of results in the supplement of paper PMC4166925.

± gives the standard deviation of the averaged measurements. In all, about 33,000 sequences were measured (“E-score (dimensionless, -0.5 to 0.5)”: median about -0.046, highest 2% from about 0.36 on). Some of the results follow.

This assay concerns T1, SpTbr T-box DNA-binding domain (GST fusion).
T1 sequence: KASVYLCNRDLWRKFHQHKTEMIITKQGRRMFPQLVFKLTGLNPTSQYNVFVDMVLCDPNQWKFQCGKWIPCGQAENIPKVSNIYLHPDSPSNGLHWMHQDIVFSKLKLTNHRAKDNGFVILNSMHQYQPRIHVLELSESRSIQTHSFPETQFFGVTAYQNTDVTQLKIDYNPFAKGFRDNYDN
Description: PBM E-score of 8-mer (E-score (dimensionless, -0.5 to 0.5)); Tbr is Tbrain of the sea star Patiria miniata (Pm) or the sea urchin Strongylocentrotus purpuratus (Sp); higher = stronger binding preference; most listed sequences are background and not binding sites. As to conditions: the construct has about 5 more residues each side. In short, it runs like this: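 Using the Universal PBM Analysis Suite, every ungapped 8-mer received an enrichment E-score averaged over duplicate arrays. Probe intensities came from double-stranded Universal Agilent oligonucleotide arrays incubated with 200 nM GST-fused Tbr T-box DNA-binding domain in PBS (pH 7.5). That protein was expressed in BL21 E. coli at 20 °C and purified by glutathione affinity chromatography.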
In the case of CTACGTAC, the “PBM E-score of 8-mer” value is -0.143 ± 0.072.

For the sequence ACGGAACC, the “PBM E-score of 8-mer” value is -0.0857 ± 0.033.

For the sequence CTGGTGAA, the “PBM E-score of 8-mer” value is 0.0503 ± 0.11.

Turning to CATTATCG, the “PBM E-score of 8-mer” value was 0.0371 ± 0.076.

Turning to ATCGGTCA, the “PBM E-score of 8-mer” value was -0.0165 ± 0.089.

Consider AAAGCGAC, for which the “PBM E-score of 8-mer” value was determined as 0.0882 ± 0.063.

Take ATAAAAAG: the “PBM E-score of 8-mer” value was -0.0115 ± 0.068.

GGGAATAA: the “PBM E-score of 8-mer” value is -0.187 ± 0.022.

With CCATCGCC, the “PBM E-score of 8-mer” value was 0.115 ± 0.0031.

Turning to CACGGTGC, the “PBM E-score of 8-mer” value was 0.167 ± 0.04.

Consider ACGGGGGA, for which the “PBM E-score of 8-mer” value was -0.25 ± 0.12.

Take ACGACCCG: the “PBM E-score of 8-mer” value came to 0.0339 ± 0.023.

For the sequence CCTATACA, the “PBM E-score of 8-mer” value is -0.228 ± 0.019.

Consider CGTCCCCA, for which the “PBM E-score of 8-mer” value turned out to be 0.0711 ± 0.057.

For GGATTTGA, the “PBM E-score of 8-mer” value was -0.2 ± 0.037.

With CTCTGCAC, the “PBM E-score of 8-mer” value was 0.0981 ± 0.022.

For AAAGCACT, the “PBM E-score of 8-mer” value was -0.0204 ± 0.038.

As to AATACGCC, the “PBM E-score of 8-mer” value is -0.109 ± 0.026.

Regarding CCGCTATC, the “PBM E-score of 8-mer” value amounted to 0.159 ± 0.0031.

As for GCTGGCCC, the “PBM E-score of 8-mer” value is -0.109 ± 0.074.

For the sequence CTTTACAC, the “PBM E-score of 8-mer” value was found to be 0.337 ± 0.034.

Consider AGATATGC, for which the “PBM E-score of 8-mer” value is -0.0661 ± 0.015.

Take AAGCGTCC: the “PBM E-score of 8-mer” value was -0.17 ± 0.064.

As to CAGCAGAG, the “PBM E-score of 8-mer” value was -0.0309 ± 0.05.

As for AAGGTACA, the “PBM E-score of 8-mer” value was -0.225 ± 0.024.

On to AAAAGTCA, for which the “PBM E-score of 8-mer” value was -0.0932 ± 0.033.

As to CGCTAAAG, the “PBM E-score of 8-mer” value was 0.303 ± 0.056.

As for ACTTGTGC, the “PBM E-score of 8-mer” value was -0.00268 ± 0.023.

For CAAAGAGA, the “PBM E-score of 8-mer” value was -0.0571 ± 0.0022.

In the case of AAATCCTC, the “PBM E-score of 8-mer” value is -0.163 ± 0.02.

With ATAACTCC, the “PBM E-score of 8-mer” value is -0.147 ± 0.029.

Turning to TCGTTGAA, the “PBM E-score of 8-mer” value is -0.0366 ± 0.034.

Regarding CATATACA, the “PBM E-score of 8-mer” value is -0.00532 ± 0.1.

For CTAGGTAC, the “PBM E-score of 8-mer” value is -0.0845 ± 0.026.

In the case of GGATGCCC, the “PBM E-score of 8-mer” value was 0.00449 ± 0.079.

For the sequence ACCGAGCT, the “PBM E-score of 8-mer” value was -0.191 ± 0.053.

In the case of ATGGTCAA, the “PBM E-score of 8-mer” value is -0.0272 ± 0.11.

Consider CGCAGACA, for which the “PBM E-score of 8-mer” value was determined as 0.173 ± 0.02.

Regarding CATAGTGA, the “PBM E-score of 8-mer” value amounted to 0.102 ± 0.03.

For the sequence CATCCCAG, the “PBM E-score of 8-mer” value is -0.0881 ± 0.028.

On to ATATTCCA, for which the “PBM E-score of 8-mer” value is -0.124 ± 0.0019.

As for CTGCACCC, the “PBM E-score of 8-mer” value is -0.0261 ± 0.075.

Regarding ATGACGGC, the “PBM E-score of 8-mer” value was 0.00549 ± 0.0075.

CGAGGAAA: the “PBM E-score of 8-mer” value was -0.155 ± 0.09.

For CTATTTTC, the “PBM E-score of 8-mer” value amounted to 0.103 ± 0.0057.

With GCGCTGAC, the “PBM E-score of 8-mer” value came out at 0.183 ± 0.066.

As to AGGCGCAT, the “PBM E-score of 8-mer” value was -0.182 ± 0.024.

AGTCACGG: the “PBM E-score of 8-mer” value is -0.193 ± 0.0098.

For the sequence CTAATTCC, the “PBM E-score of 8-mer” value is -0.108 ± 0.0076.

With CACACGCC, the “PBM E-score of 8-mer” value worked out at 0.278 ± 0.014.

In the case of GTCTTCTA, the “PBM E-score of 8-mer” value is -0.215 ± 0.0051.

On to CGCTTTGC, for which the “PBM E-score of 8-mer” value is -0.101 ± 0.0023.

Turning to AGAAAGGG, the “PBM E-score of 8-mer” value was -0.172 ± 0.014.

For the sequence GGCTAATA, the “PBM E-score of 8-mer” value is -0.343 ± 0.037.

On to CAAGCGCG, for which the “PBM E-score of 8-mer” value was determined as 0.219 ± 0.045.

AGGAGGTG: the “PBM E-score of 8-mer” value came out at 0.391 ± 0.03.

In the case of ACAAGCTG, the “PBM E-score of 8-mer” value is -0.0789 ± 0.095.

Turning to CGAGATCC, the “PBM E-score of 8-mer” value was found to be 0.0984 ± 0.011.

As to CACCTAAA, the “PBM E-score of 8-mer” value was 0.3188 ± 0.00098.

Turning to AAGCAGTA, the “PBM E-score of 8-mer” value was -0.24 ± 0.015.

Consider CATGGTCA, for which the “PBM E-score of 8-mer” value was -0.0299 ± 0.0084.

For GCGTAGCC, the “PBM E-score of 8-mer” value is -0.273 ± 0.014.

For the sequence ATCGAGAA, the “PBM E-score of 8-mer” value turned out to be 0.0629 ± 0.003.

Take ACAATGGC: the “PBM E-score of 8-mer” value is -0.145 ± 0.015.

Turning to GTACTGAA, the “PBM E-score of 8-mer” value was -0.166 ± 0.025.

For CTGGCCGA, the “PBM E-score of 8-mer” value is -0.348 ± 0.077.

Take CTGGCAGC: the “PBM E-score of 8-mer” value is 0.062 ± 0.036.

In the case of ACGCGTCC, the “PBM E-score of 8-mer” value was determined as 0.0966 ± 0.012.

As to AGCATTTA, the “PBM E-score of 8-mer” value was 0.0949 ± 0.041.

Turning to AGACTTGC, the “PBM E-score of 8-mer” value was 0.212 ± 0.06.

Consider CGGATCCC, for which the “PBM E-score of 8-mer” value is -0.073 ± 0.1.

On to ACGTCCCG, for which the “PBM E-score of 8-mer” value is 0.00739 ± 0.056.

As to GATTACCC, the “PBM E-score of 8-mer” value is -0.187 ± 0.018.

In the case of GATAGGCC, the “PBM E-score of 8-mer” value is -0.178 ± 0.057.

Consider CAAAATCG, for which the “PBM E-score of 8-mer” value turned out to be 0.0801 ± 0.0068.

For the sequence GACCCGAA, the “PBM E-score of 8-mer” value came out at 0.14 ± 0.0097.

Regarding CCTAAGGC, the “PBM E-score of 8-mer” value was -0.1219 ± 0.0011.

Take ACCATGCA: the “PBM E-score of 8-mer” value was -0.145 ± 0.054.

Take CAATCATG: the “PBM E-score of 8-mer” value amounted to 0.0291 ± 0.021.

For GATTCGCA, the “PBM E-score of 8-mer” value stood at 0.327 ± 0.014.

Regarding CAATCATC, the “PBM E-score of 8-mer” value was -0.0123 ± 0.036.

Regarding GCGAGACA, the “PBM E-score of 8-mer” value was 0.0993 ± 0.03.

AGTTCTGG: the “PBM E-score of 8-mer” value was -0.228 ± 0.0063.

For ACCGCCAT, the “PBM E-score of 8-mer” value is -0.0737 ± 0.066.

As for AAGCCCAC, the “PBM E-score of 8-mer” value was -0.0949 ± 0.035.

Consider CTTCGCCA, for which the “PBM E-score of 8-mer” value came out at 0.273 ± 0.019.
